Experimental data taken from a collection of fitness landscapes (doi:10.1016/j.celrep.2020.107928).
Whole data set: some 81,000 sequences, median “one-hybrid fitness for binding NBS DNA” near -0.1, cut for the highest 2% near 0.36. The list shows a part of the results.

B1: Caulobacter ParB omega fusion; a variant is named by its letters at X, in order, B8GW30 (parent)
chain: MESVVVGEPGMSEGRRGLGRGLSALLGEVDAAPAQAPGEQLGGSREAPIEILQRNPDQPRRTFREEDLEDLSNSIREKGVLQPILVRPSPDTAGEYQIVAGERAWRAAQRAGLKTVPIMVRELDDLAVLEIGIIENVQRADLNVLEEALSYKVLMEKFERTQENIAQTIGKSXSHVANXMRLLXLPDEVQSYLVSGELTAXHARAIAAAADPVALAKQIIEGGLSVRETEALARKAPNLSAGKSKGGRPPRVKDTDTQALESDLSSVLGLDVSIDHRGSTGTLTITYATLEQLDDLCNRLTRGI

Variants of: B1
Assay: one-hybrid fitness for binding NBS DNA (the Noc-binding site; scaled: cognate 1, non-cognate 0); higher = stronger binding
Conditions: with NBS DNA site
In short: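 On M9-minus-histidine containing 0.1 mM IPTG and 5 mM 3-AT, E. coli USO cells with a HIS3 reporter, site 19 bp from the promoter, grew 48 hours at 37°C to select Caulobacter ParB libraries randomised at four specificity codons. Plasmids from before and after were Illumina-sequenced, with three replicate libraries pooled and variants under 10 reads left out. Fitness is the log change in variant-to-wild-type read ratio, rescaled against cognate and non-cognate.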

Variant	one-hybrid fitness for binding NBS DNA
IVQC	≤ 0.2
GVVP	≤ 0.2
FYAW	≤ 0.2
QCFI	≤ 0.2
NETC	≤ 0.2
VHMC	≤ 0.2
PTEC	≤ 0.2
PVMR	≤ 0.2
TRRI	≤ 0.2
NPIR	≤ 0.2
VWWS	≤ 0.2
SGGA	≤ 0.2
PVWR	≤ 0.2
RNIK	≤ 0.2
DDQT	≤ 0.2
CAFG	≤ 0.2
AGAL	≤ 0.2
AKVS	≤ 0.2
YPHL	≤ 0.2
EWRS	≤ 0.2
LPST	≤ 0.2
IRPA	≤ 0.2
EQCT	≤ 0.2
CRGR	≤ 0.2
ALPL	≤ 0.2

Variant	one-hybrid fitness for binding NBS DNA
YGVH	≤ 0.2
NWKG	≤ 0.2
RIWL	≤ 0.2
RSNN	≤ 0.2
SETY	≤ 0.2
RWPY	≤ 0.2
YTKH	≤ 0.2
ECAR	≤ 0.2
FGDT	≤ 0.2
RNAN	≤ 0.2
LYNF	≤ 0.2
QIGN	≤ 0.2
TQTH	≤ 0.2
ILNQ	≤ 0.2
EDWY	≤ 0.2
VREC	≤ 0.2
DKPR	≤ 0.2
VWHR	≤ 0.2
HQPW	≤ 0.2
NMVW	≤ 0.2
TYTL	≤ 0.2
GRRC	≤ 0.2
HCYM	≤ 0.2
VWSQ	≤ 0.2
PYAW	≤ 0.2

Variant	one-hybrid fitness for binding NBS DNA
RYLC	≤ 0.2
AMTN	≤ 0.2
LPRW	≤ 0.2
DFAS	≤ 0.2
YNVG	≤ 0.2
TSML	≤ 0.2
PTES	≤ 0.2
RIFE	≤ 0.2
RNTR	0.299
TYLD	≤ 0.2
QAGC	≤ 0.2
SLYR	≤ 0.2
HRCL	≤ 0.2
FAFL	0.451
QKLR	0.491
MATA	≤ 0.2
SLVS	≤ 0.2
DAEE	≤ 0.2
WGAY	≤ 0.2
ADPS	≤ 0.2
LIRA	≤ 0.2
LGER	≤ 0.2
DALG	≤ 0.2
IENC	≤ 0.2
YSQG	≤ 0.2

Variant	one-hybrid fitness for binding NBS DNA
RRSH	0.439
KLEH	≤ 0.2
KPHA	≤ 0.2
SCRF	≤ 0.2
QDAL	≤ 0.2
TGLH	≤ 0.2
MELL	≤ 0.2
WWVG	≤ 0.2
HFHC	≤ 0.2
VYWT	≤ 0.2
DSMG	≤ 0.2
ESRW	≤ 0.2
MWGS	≤ 0.2
CRVT	≤ 0.2
TPHC	≤ 0.2
PHPM	≤ 0.2
NSLS	≤ 0.2
VWMG	≤ 0.2
YIKV	≤ 0.2
PVLG	≤ 0.2
GVPL	≤ 0.2
EWKG	≤ 0.2
QEIT	≤ 0.2
CLPG	≤ 0.2
LYAL	≤ 0.2

Variant	one-hybrid fitness for binding NBS DNA
LSWM	≤ 0.2
YVTI	≤ 0.2
RQTG	≤ 0.2
QFWR	≤ 0.2
HSDF	≤ 0.2
VQEG	≤ 0.2
GCRN	≤ 0.2
LHMS	≤ 0.2
GNHR	≤ 0.2
CSTQ	≤ 0.2
SING	≤ 0.2
PLHV	≤ 0.2
QSGY	≤ 0.2
EMFA	≤ 0.2
SGVV	≤ 0.2
VASW	≤ 0.2
CQPE	≤ 0.2
TMQS	≤ 0.2
SYNT	≤ 0.2
TKSM	≤ 0.2
DWVF	≤ 0.2
QDRN	≤ 0.2
DTRE	≤ 0.2
CVRT	≤ 0.2
TWIS	≤ 0.2

Variant	one-hybrid fitness for binding NBS DNA
QCNA	0.369
NTNS	≤ 0.2
PAGD	≤ 0.2
RSQR	0.44
ASDA	≤ 0.2
TPES	≤ 0.2
WMPR	≤ 0.2
NGHR	≤ 0.2
DIPF	≤ 0.2
LGEC	≤ 0.2
SQGG	≤ 0.2
TICS	≤ 0.2
CKLS	≤ 0.2
GQPR	≤ 0.2
PSNP	≤ 0.2
QCMW	≤ 0.2
IGMR	≤ 0.2
RRYI	≤ 0.2
VEPM	≤ 0.2
QYYF	≤ 0.2
TYRW	≤ 0.2
PYEH	≤ 0.2
SWST	≤ 0.2
VNGG	≤ 0.2
PPPA	≤ 0.2

Variant	one-hybrid fitness for binding NBS DNA
KINE	≤ 0.2
FNPC	≤ 0.2
KPSA	≤ 0.2
LAIR	≤ 0.2
DKLS	≤ 0.2
NWVC	≤ 0.2
GAPD	≤ 0.2
MPHV	≤ 0.2
NPCP	≤ 0.2
IAAQ	≤ 0.2
MALF	≤ 0.2
GVWT	≤ 0.2
SPPI	≤ 0.2
AQRT	≤ 0.2
FMTY	≤ 0.2
LEHR	≤ 0.2
HPTK	≤ 0.2
TNKY	≤ 0.2
LCQC	≤ 0.2
RKKM	0.269
TIGG	≤ 0.2
PRGK	≤ 0.2
FYRR	≤ 0.2
CRLA	≤ 0.2
HKYA	≤ 0.2

Variant	one-hybrid fitness for binding NBS DNA
LDMV	≤ 0.2
MRPS	≤ 0.2
QLMN	≤ 0.2
IQSK	≤ 0.2
WKPQ	≤ 0.2
SEQM	≤ 0.2
RTES	0.219
VMFS	≤ 0.2
LPPK	≤ 0.2
HNIC	≤ 0.2
SNGR	≤ 0.2
ISKY	≤ 0.2
QALV	≤ 0.2
VPWL	≤ 0.2
RYLD	≤ 0.2
NGTE	≤ 0.2
KHYT	≤ 0.2
TPSR	≤ 0.2
SNYH	≤ 0.2
QQKC	0.449
